From patent US11130822B2 (ROCHE GLYCART AG, dated 2021) come the findings set out here.

For orientation: EC50 means the midpoint of the concentration-response curve.

The target of experiment [1] is CEA (SPR ligand) (human, UniProt P06731). The experiment can be described thus: SPR at 25° C.
Experiment [2] deals with T1, human IL-2R α-subunit (human).
T1 chain: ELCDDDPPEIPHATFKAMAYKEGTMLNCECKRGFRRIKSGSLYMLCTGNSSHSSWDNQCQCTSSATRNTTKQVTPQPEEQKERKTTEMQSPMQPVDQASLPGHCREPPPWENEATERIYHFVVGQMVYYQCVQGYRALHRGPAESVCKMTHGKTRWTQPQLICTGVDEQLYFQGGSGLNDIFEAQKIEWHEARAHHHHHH
The experiment can be described thus: SPR at 25° C.

Experiment [3] concerns the target human FAP expressed on stably transfected HEK293 cells (human, UniProt Q12884). The experiment can be described thus: FACS on HEK293 cells stably transfected with human FAP.
The target in experiment [4] is human IL-2R βγ heterodimer (IL-2R βγ subunit-Fc fusion) (human). The experiment can be described thus: SPR, IL-2R βγ heterodimer immobilized on CM5 chip; apparent KD, 1:1 fit. (In general: Surface plasmon resonance follows binding to a sensor surface in real time, without labels.)
The target in experiment [5] is IL-2R βγ heterodimer on human PBMC subsets (NK cells, CD8+ T cells, CD4+ T cells, Treg cells) (human, UniProt P14784). Put plainly: cell-based or functional assay.

B1: CEA-targeted CH1A1A 98/99 2F1-based IgG-IL-2 wt immunoconjugate (other)
heavy 1: QVQLVQSGAEVKKPGASVKVSCKASGYTFTEFGMNWVRQAPGQGLEWMGWINTKTGEATYVEEFKGRVTFTTDTSTSTAYMELRSLRSDDTAVYYCARWDFAYYVEAMDYWGQGTTVTVSSASTKGPSVFPLAPSSKSTSGGTAALGCLVKDYFPEPVTVSWNSGALTSGVHTFPAVLQSSGLYSLSSVVTVPSSSLGTQTYICNVNHKPSNTKVDKKVEPKSCDKTHTCPPCPAPEAAGGPSVFLFPPKPKDTLMISRTPEVTCVVVDVSHEDPEVKFNWYVDGVEVHNAKTKPREEQYNSTYRVVSVLTVLHQDWLNGKEYKCKVSNKALGAPIEKTISKAKGQPREPQVCTLPPSRDELTKNQVSLSCAVKGFYPSDIAVEWESNGQPENNYKTTPPVLDSDGSFFLVSKLTVDKSRWQQGNVFSCSVMHEALHNHYTQKSLSLSPGK
heavy 2: QVQLVQSGAEVKKPGASVKVSCKASGYTFTEFGMNWVRQAPGQGLEWMGWINTKTGEATYVEEFKGRVTFTTDTSTSTAYMELRSLRSDDTAVYYCARWDFAYYVEAMDYWGQGTTVTVSSASTKGPSVFPLAPSSKSTSGGTAALGCLVKDYFPEPVTVSWNSGALTSGVHTFPAVLQSSGLYSLSSVVTVPSSSLGTQTYICNVNHKPSNTKVDKKV[human IgG1 Fc with changes not given here]GGGGSGGGGSGGGGS[about 150 residues not given here]
light: DIQMTQSPSSLSASVGDRVTITCKASAAVGTYVAWYQQKPGKAPKLLIYSASYRKRGVPSRFSGSGSGTDFTLTISSLQPEDFATYYCHQYYTYPLFTFGQGTKLEIKRTVAAPSVFIFPPSDEQLKSGTASVVCLLNNFYPREAKVQWKVDNALQSGNSQESVTEQDSKDSTYSLSSTLTLSKADYEKHKVYACEVTHQGLSSPVTKSFNRGEC
Take B1: the Kd in experiment [1] is 0.47 nM; in experiment [2], approximately 20 nM.

B2: CEA-targeted CH1A1A 98/99 2F1-based IgG-IL-2 qm immunoconjugate (other)
heavy 1: QVQLVQSGAEVKKPGASVKVSCKASGYTFTEFGMNWVRQAPGQGLEWMGWINTKTGEATYVEEFKGRVTFTTDTSTSTAYMELRSLRSDDTAVYYCARWDFAYYVEAMDYWGQGTTVTVSSASTKGPSVFPLAPSSKSTSGGTAALGCLVKDYFPEPVTVSWNSGALTSGVHTFPAVLQSSGLYSLSSVVTVPSSSLGTQTYICNVNHKPSNTKVDKKVEPKSCDKTHTCPPCPAPEAAGGPSVFLFPPKPKDTLMISRTPEVTCVVVDVSHEDPEVKFNWYVDGVEVHNAKTKPREEQYNSTYRVVSVLTVLHQDWLNGKEYKCKVSNKALGAPIEKTISKAKGQPREPQVCTLPPSRDELTKNQVSLSCAVKGFYPSDIAVEWESNGQPENNYKTTPPVLDSDGSFFLVSKLTVDKSRWQQGNVFSCSVMHEALHNHYTQKSLSLSPGK
heavy 2: QVQLVQSGAEVKKPGASVKVSCKASGYTFTEFGMNWVRQAPGQGLEWMGWINTKTGEATYVEEFKGRVTFTTDTSTSTAYMELRSLRSDDTAVYYCARWDFAYYVEAMDYWGQGTTVTVSS[human IgG1 constant region with changes not given here]SGGGGSGGGGSGGGGAPASSSTKKTQLQLEHLLLDLQMILNGINNYKNPKLTRMLTAKFAMPKKATELKHLQCLEEELKPLEEVLNGAQSKNFHLRPRDLISNINVIVLELKGSETTFMCEYADETATIVEFLNRWITFAQSIISTLT
light: DIQMTQSPSSLSASVGDRVTITCKASAAVGTYVAWYQQKPGKAPKLLIYSASYRKRGVPSRFSGSGSGTDFTLTISSLQPEDFATYYCHQYYTYPLFTFGQGTKLEIKRTVAAPSVFIFPPSDEQLKSGTASVVCLLNNFYPREAKVQWKVDNALQSGNSQESVTEQDSKDSTYSLSSTLTLSKADYEKHKVYACEVTHQGLSSPVTKSFNRGEC
In experiment [1], B2 came in with a Kd of 0.4 nM.

B3: FAP-targeted 4G8-based IgG-IL-2 qm immunoconjugate (other)
heavy 1: [about 100 residues not given here]GWLGNFDYWGQGTLVTVSSASTKGPSVFPLAPSSKSTSGGTAALGCLVKDYFPEPVTVSWNSGALTSGVHTFPAVLQSSGLYSLSSVVTVPSSSLGTQTYICNVNHKPSNTKVDKKVEPKSCDKTHTCPPCPAPEAAGGPSVFLFPPKPKDTLMISRTPEVTCVVVDVSHEDPEVKFNWYVDGVEVHNAKTKPREEQYNSTYRVVSVLTVLHQDWLNGKEYKCKVSNKALGAPIEKTISKAKGQPREPQVCTLPPSRDELTKNQVSLSCAVKGFYPSDIAVEWESNGQPENNYKTTPPVLDSDGSFFLVSKLTVDKSRWQQGNVFSCSVMHEALHNHYTQKSLSLSPGK
heavy 2: [about 100 residues not given here][about 120 residues not given here][human IgG1 Fc with changes not given here]GGGGSGGGGSGGGGAPASSSTKKTQLQLEHLLLDLQMILNGINNYKNPKLTRMLTAKFAMPKKATELKHLQCLEEELKPLEEVLNGAQSKNFHLRPRDLISNINVIVLELKGSETTFMCEYADETATIVEFLNRWITFAQSIISTLT
light: EIVLTQSPGTLSLSPGERATLSCRASQSVSRSYLAWYQQKPGQAPRLLIIGASTRATGIPDRFSGSGSGTDFTLTISRLEPEDFAVYYCQQGQVIPPTFGQGTKVEIKRTVAAPSVFIFPPSDEQLKSGTASVVCLLNNFYPREAKVQWKVDNALQSGNSQESVTEQDSKDSTYSLSSTLTLSKADYEKHKVYACEVTHQGLSSPVTKSFNRGEC
B3 returned an EC50 in experiment [3] of 0.9 nM. Besides, in experiment [4], the Kd worked out at 5.9 nM. Also, the “STAT5 phosphorylation in NK cells and CD8+ T cells from human PBMCs (FACS)” value in experiment [5] is < 10 fold less potent than Proleukin.

B4: FAP-targeted 4B9-based IgG-IL-2 wt immunoconjugate (other)
heavy 1: EVQLLESGGGLVQPGGSLRLSCAASGFTFSSYAMSWVRQAPGKGLEWVSAIIGSGASTYYADSVKGRFTISRDNSKNTLYLQMNSLRAEDTAVYYCAKGWFGGFNYWGQGTLVTVSSASTKGPSVFPLAPSSKSTSGGTAALGCLVKDYFPEPVTVSWNSGALTSGVHTFPAVLQSSGLYSLSSVVTVPSSSLGTQTYICNVNHKPSNTKVDKKVEPKSCDKTHTCPPCPAPEAAGGPSVFLFPPKPKDTLMISRTPEVTCVVVDVSHEDPEVKFNWYVDGVEVHNAKTKPREEQYNSTYRVVSVLTVLHQDWLNGKEYKCKVSNKALGAPIEKTISKAKGQPREPQVCTLPPSRDELTKNQVSLSCAVKGFYPSDIAVEWESNGQPENNYKTTPPVLDSDGSFFLVSKLTVDKSRWQQGNVFSCSVMHEALHNHYTQKSLSLSPGK
heavy 2: EVQLLESGGGLVQPGGSLRLSCAASGFTFSSYAMSWVRQAPGKGLEWVSAIIGSGASTYYADSVKGRFTISRDNSKNTLYLQMNSLRAEDTAVYYCAKGWFGGFNYWGQGTLVTVSSASTKGPSVFPLAPSSKSTSGGTAALGCLVKDYFPEPVTVSWNSGALTSGVHTFPAVLQSSGLYSLSSVVTVPSSSLGTQTYICNVNHKPSNTKVDKKV[human IgG1 Fc with changes not given here]GGGGSGGGGSGGGGS[about 150 residues not given here]
light: EIVLTQSPGTLSLSPGERATLSCRASQSVTSSYLAWYQQKPGQAPRLLINVGSRRATGIPDRFSGSGSGTDFTLTISRLEPEDFAVYYCQQGIMLPPTFGQGTKVEIKRTVAAPSVFIFPPSDEQLKSGTASVVCLLNNFYPREAKVQWKVDNALQSGNSQESVTEQDSKDSTYSLSSTLTLSKADYEKHKVYACEVTHQGLSSPVTKSFNRGEC
Regarding B4, in experiment [2], the Kd is approximately 20 nM.
